According to PubChem BioAssay AID686971 (National Center for Advancing Translational Sciences (NCATS), 2013):
Several values for one entry are separate records, joined by “and”; a condition that tells them apart may be missing. Equal entries are not always repeated. Among all 360,000 compounds or so, about 7,500 (2.1%) were called active. The inconclusive results got no clear call from the source; some entries with a clear call stand among them for comparison. Calls come from the whole dose curve; as a rule, active = well fitted cell-killing curve with a large enough effect; inconclusive = small, poorly fitted or top-dose-only effect, or effect the other way, or another doubt; inactive = no such curve, though single readings can be large or run the other way. Potencies of inconclusive entries are left out as doubtful fits.
Potency is the fitted concentration of half-maximal effect; tags give direction and shape of the fitted curve.

Test: qHTS for induction of synthetic lethality in tumor cells producing 2HG: qHTS for the HT-1080-IDH1KD cell line;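 for activity, negative = toxicity: 0% = DMSO wells and -100% = cell-free medium wells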
Conditions: HT-1080 IDH1 knockdown viability, ATP luminescence, 48 h; activity, negative = toxicity: at 46.1 µM (top of the series) unless noted
Summary of the method: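 HT-1080-IDH1KD cells (IDH1 knocked down), 750/well in RPMI with 5% FBS, treated with compound 48 h at 37 degrees C. Viability by CellTiter-Glo luminescence, normalised to DMSO and no-cell wells; concentration-response curves classed.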
For COc1ccc(C(O)(CCC(C)C)C(CN2CCOCC2)c2ccc(Cl)cc2)cc1 (configuration not stated), the Potency was inconclusive [cytotoxic, single point]. With Cc1c(CCO)c(=O)[nH]n1C(=O)c1c(F)cccc1F the Potency was active: 6.31 µM. With N#C/C(=C\c1c(Oc2ccc(Cl)cc2)nc2ccccn2c1=O)C(=O)NC1CCS(=O)(=O)C1 (configuration not stated) the Potency was inconclusive [cytotoxic, single point]. With Cc1ccc(NC(=O)c2ccc(Cl)c(NC(=O)c3cccs3)c2)cc1 the Potency was inconclusive [cytotoxic, single point]. For NC(=S)N/N=C/c1ccccc1OC(=O)c1cc2ccccc2oc1=O, the “activity, negative = toxicity” value was inactive: 0%. In the case of COc1ccccc1C1c2ccc3ccccc3c2Oc2ncn(CCN(C)C)c(=N)c21 (configuration not stated), the Potency is reported as active: 8.2 µM. With CCOC(=O)c1c(C)[nH]c(N=Nc2ccccc2)c1C the Potency was inconclusive [cytotoxic, single point]. In the case of CC(=Nc1cccc(O)c1)c1sc2ccccc2c1O, the activity, negative = toxicity is reported as inconclusive: 4.45%. In the case of COc1ccc(Nc2cc(=O)oc3ccccc23)cc1, the Potency is reported as active: 5.8 µM. In the case of Cc1ccc2[nH]c3nc(N/N=C/c4cccc(O)c4)nnc3c2c1, the activity, negative = toxicity is reported as inconclusive: -28.4% [cytotoxic]. With Cc1ncc(/C=C2\C(=O)Nc3ccccc32)[nH]1 the Potency was inconclusive [rising, full curve, poor fit]. In the case of CCCCCCCCN1C(=O)[C@H](CC(=O)NCc2cccc3ccccc23)C[C@@]2(C(=O)OC)CCCCC=C12, the Potency is reported as inconclusive [cytotoxic, single point]. In the case of COc1ccc(CNC(=O)CCNC(=O)N2CCn3c2nc2ccccc23)cc1, the “activity, negative = toxicity” value is reported as inactive: 7.1%. For CCc1nc2ccccc2c(C(=O)OC2CCCCC2=O)c1C (configuration not stated), the Potency was inconclusive [cytotoxic, single point]. In the case of CCOc1ccc(-n2c(C)cc(C(=O)CCl)c2C)cc1, the Potency is reported as active: 8.2 µM. For Cc1cc(C(=O)N/N=C/c2cc(Br)ccc2OC(=O)c2ccccc2)n[nH]1, the Potency was active: 8.2 µM. With COc1ccc(OC)c(C(=O)c2ccc(C(=O)c3cc(OC)ccc3OC)cc2)c1 the “activity, negative = toxicity” value was inactive: 0%. For N#Cc1cc(Oc2cccc3cccnc23)c(-n2nnc3ccccc32)cc1C#N, the Potency was active: 6.31 µM. With CCn1c2ccccc2c2cc(C3C(C#N)=C(N)Oc4n[nH]c(COC)c43)ccc21 (configuration not stated) the Potency was active: 8.91 µM. In the case of Cc1ccc(N/N=C(\C#N)C(=N)N2CCCCCC2)cc1, the “activity, negative = toxicity” value is reported as inactive: -9.88%. In the case of N#CC1=C(N)Oc2c(O)cc3ccccc3c2C1c1ccsc1 (configuration not stated), the Potency is reported as active: 14.6 µM. With CN1CC(c2ccccc2)C2(SC(=S)N(Cc3ccco3)C2=O)C12C(=O)Nc1ccccc12 (configuration not stated) the Potency was inconclusive [cytotoxic, single point]. With CC1Sc2ccc(S(=O)(=O)N3CCC(C(=O)NCc4ccc(Cl)cc4)CC3)cc2NC1=O (configuration not stated) the Potency was inconclusive [cytotoxic, single point]. In the case of Cc1cc(C)c(NC(=O)CS(=O)CC(=O)N2CCN(c3cccc(C)c3C)CC2)c(C)c1 (configuration not stated), the “activity, negative = toxicity” value is reported as inactive: -12%. With O=C(Cc1c(F)c(F)c(F)c(F)c1F)Nc1nc(-c2ccccc2)cs1 the Potency was active: 16.4 µM. For CCOCCCNC(=O)c1ccc2c(c1)N=C(CC)c1cc(Br)ccc1S2, the Potency was active: 0.092 µM. In the case of Cc1ccc2c(c1)[nH]c1c(N3CCN(Cc4ccccc4)CC3)ncnc12, the Potency is reported as inconclusive [cytotoxic, single point]. For COc1ccccc1/C=C/C(=O)NC(=S)N(C)C1CCCCC1, the activity, negative = toxicity was inconclusive: -56.3%. For COc1cc(/C=N/NC(=O)c2ccc(O)cc2)ccc1Oc1ccc([N+](=O)[O-])cn1, the Potency was active: 18.4 µM. In the case of COCC(C)n1c(C)cc(C(=O)CSc2nnc(-c3ccco3)o2)c1C (configuration not stated), the “activity, negative = toxicity” value is reported as inactive: -20.4%. With S=C(NCc1ccccc1)NC1CCSc2ccccc21 (configuration not stated) the Potency was inconclusive [cytotoxic, single point]. For CCn1c(=O)n(CC)c2cc(S(=O)(=O)N3CCCCC3)c(C)cc21, the Potency was inconclusive [cytotoxic, partial curve]. With c1coc(CNc2nc(N3CCCCC3)nc3ccccc23)c1 the Potency was inconclusive [cytotoxic, single point]. With CC(=O)c1sc(N/N=C\c2cccc(Br)c2)nc1C the Potency was inconclusive [cytotoxic, single point]. For CN(C)c1ccc(/C=C/c2ccc3c4ccccc4ccc3[n+]2-c2ccccc2)cc1, the Potency was active: 8.91 µM and active: 5.8 µM. For CC1CCN(c2c(NCc3ccc(C(=O)N4CCc5ccccc54)cc3)c(=O)c2=O)CC1, the Potency was active: 4.11 µM. With COc1ccc(N=C2S/C(=C\c3ccc(OC(C)C(=O)O)c(OC)c3)C(=O)N2CCc2c[nH]c3ccccc23)cc1 (configuration not stated) the Potency was inconclusive [cytotoxic, single point]. In the case of O=C(Nc1ccc2c(c1)[C@@H]1C[C@@H](CC(=O)N3CCOCC3)O[C@@H](CO)[C@@H]1O2)NC1CCCC1, the “activity, negative = toxicity” value is reported as inactive: 6.75%. With CN(c1cccc(NC(=O)CN(c2ccc(C34CC5CC(CC(C5)C3)C4)cc2)S(C)(=O)=O)c1)S(C)(=O)=O the Potency was active: 20 µM. With CC1(C(=O)NS(=O)(=O)c2ccccc2C(F)(F)F)CCN1C(=O)CCc1ccccc1 (configuration not stated) the “activity, negative = toxicity” value was inactive: 0.559%. For CC(=O)NC1C(=O)N(CCc2ccccc2)c2ccc(Br)cc21 (configuration not stated), the “activity, negative = toxicity” value was inactive: -7.95%. In the case of COc1cc(C(=O)NNC(=S)NC(=O)c2ccccc2C)cc(OC)c1OC, the Potency is reported as inconclusive [cytotoxic, partial curve]. In the case of Cc1ccc2cc(CN(CC3CCCO3)C(=S)NCc3ccco3)c(=O)[nH]c2c1C (configuration not stated), the Potency is reported as inconclusive [cytotoxic, partial curve]. For c1ccc(-c2cn(-c3ccccc3)c3ncnc(N4CCCCC4)c23)cc1, the Potency was inconclusive [cytotoxic, single point]. For C=CCn1c(-c2cc(OC)c(OC)c(OC)c2)n[nH]c1=S, the Potency was inconclusive [cytotoxic, single point]. With CCOC(=O)c1c(C2CC2)csc1NC(=O)COC(=O)c1ccc[n+]([O-])c1 the “activity, negative = toxicity” value was inactive: 0.895%. In the case of O=C(N(c1ccccc1)c1ccccc1)n1ccnc1, the “activity, negative = toxicity” value is reported as inactive: 3.66%.
